# Values joined by “and” are separate entries in the source; they are usually repeats but may differ in a detail not shown here. Equal values may be shown once. Out of some 110,000 compounds screened, about 230 (0.21%) showed an effect of 50% or more. This is one part of the list.
# Molecular target: DPAP1 (Plasmodium falciparum, UniProt Q8IIJ9)
# Assay: primary screen, percent inhibition; read by cleavage of a fluorogenic dipeptide substrate; higher = more effect of the substance
# Parameters: species or system P. falciparum D10 trophozoite lysates; single well
# 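Note: 30 min substrate incubation versus DMSO and 10 µM JCP410 controls.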
# Chain of DPAP1 (Q8IIJ9 whole entry, looked up): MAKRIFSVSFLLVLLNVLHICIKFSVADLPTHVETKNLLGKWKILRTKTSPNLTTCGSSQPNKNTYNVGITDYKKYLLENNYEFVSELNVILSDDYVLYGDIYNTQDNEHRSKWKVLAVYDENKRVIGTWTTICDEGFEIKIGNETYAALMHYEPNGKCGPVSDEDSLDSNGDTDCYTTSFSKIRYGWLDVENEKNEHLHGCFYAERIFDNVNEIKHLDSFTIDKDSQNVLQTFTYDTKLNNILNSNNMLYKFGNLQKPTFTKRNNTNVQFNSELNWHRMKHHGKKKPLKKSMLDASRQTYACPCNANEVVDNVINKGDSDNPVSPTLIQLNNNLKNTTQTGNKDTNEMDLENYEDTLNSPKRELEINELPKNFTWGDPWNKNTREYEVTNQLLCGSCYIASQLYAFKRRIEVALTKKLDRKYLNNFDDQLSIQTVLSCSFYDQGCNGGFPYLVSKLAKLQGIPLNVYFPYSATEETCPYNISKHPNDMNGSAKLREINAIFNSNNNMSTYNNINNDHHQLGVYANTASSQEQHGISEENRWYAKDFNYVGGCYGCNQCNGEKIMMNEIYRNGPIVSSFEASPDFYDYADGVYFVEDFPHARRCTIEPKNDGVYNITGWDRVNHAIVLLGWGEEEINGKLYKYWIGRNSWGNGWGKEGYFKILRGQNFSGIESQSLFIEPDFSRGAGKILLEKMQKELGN
row,SMILES,% Inhibition @ 10 uM
1,N=C1/C(=C\c2ccc(Br)o2)C(=O)N=C2SC(N3CCCCC3)=NN12,-3.44%
2,NC(=O)CSc1nc2ccccc2[nH]1,-1.86%
3,CC(=O)N1CCC(N(CCCN2CCC(C)CC2)C(=O)NC23CC4CC(CC(C4)C2)C3)CC1,6.08%
4,CCCOc1ccc(C(=O)N(Cc2ccc(C)cc2)Cc2ccco2)cc1,1.25%
5,CC1CCN(S(=O)(=O)N2CCC(C(=O)NC(C)c3ccccc3)CC2)CC1 (stereo not shown),-1.34%
6,Cc1ccc(COc2ccc(/C=C3\SC(=O)N(CC(=O)N4CCOCC4)C3=O)cc2)cc1,-8.88%
7,CCCOc1ccc(C(=O)Nc2ccc(-c3nc4ncccc4o3)cc2)cc1,2.13%
8,O=C(Nc1cccc([N+](=O)[O-])c1)c1cccc(S(=O)(=O)N2CCCCC2)c1,15.7%
9,Cc1ccc(-c2nc(CS(=O)CC(=O)Nc3cccnc3)c(C)o2)cc1 (stereo not shown),0.238%
10,CCC(N)C(=O)c1ccc(Br)cc1 (stereo not shown),-8.01%
11,COc1ccc(-c2ccccc2)cc1NCC1CC=CCC1 (stereo not shown),-4.14%
12,Cc1cccc(NC(=O)CC2SC(Nc3ccccc3C)=NC2=O)c1 (stereo not shown),3.17%
13,COc1ccc(CN(C(=O)c2cccc(OC)c2)C2CCS(=O)(=O)C2)cc1 (stereo not shown),4.88%
14,CCCn1c(CCC(=O)NCCc2cc(OC)ccc2OC)nc2cccnc21,0.66%
15,O=C(NCCCN1CCOCC1)c1cn(-c2ccccc2)nc1-c1ccccc1,0.716%
16,O=C(CN1Cc2ccccc2C1=O)NCc1ccccc1,-4.1%
17,CCOc1cc2c(c([N+](=O)[O-])c1)NC(C(C)C)C1CC=CC21 (stereo not shown),1%
18,CCc1c(C)sc(NC(=O)c2ccc3c(c2)OCO3)c1C(N)=O,8.71%
19,CC(C)CN(CC(C)C)C(=O)CC(=O)NC(=O)c1ccc(Cl)cc1,-4.35%
20,C=CCn1c(Cc2csc(N)n2)nnc1SCC(=O)Nc1sc(C)c(C)c1C(=O)OCC,-3.37%
21,N#CC(NC(=O)[C@H](CS(=O)(=O)Cc1ccccc1)NC(=O)N1CCOCC1)c1cccs1 (stereo partly shown),0.079%
22,CC1=C(C(=O)Nc2ccccc2)C(c2ccc(F)cc2)NC(=O)N1 (stereo not shown),7.71%

row,SMILES,% Inhibition @ 10 uM
1,O=C(Cn1nc(Cc2cccnc2)c2ccccc2c1=O)Nc1cccnc1Cl,-6.52%
2,CC(C)c1ccc(CN2CCc3c([nH]c4ccccc34)C2)cc1,-5.65%
3,CCOC(=O)c1c(NC(=O)c2c([N+](=O)[O-])cnn2C)sc2c1CCCC2,-0.999%
4,Oc1cc(CN2CCc3ccccc3C2)c2ccccc2n1,2.5%
5,CC(C)C(=O)N(Cc1ccc(Cl)cc1)C1CCS(=O)(=O)C1 (stereo not shown),-1.42%
6,CN(C)c1ccc2nc3c(=O)[nH]c(=O)[nH]c3nc2c1,0.962% and 2.23%
7,OCC/N=C/c1[nH]c2ccccc2c1O,0.0345%
8,COc1ccc(C2C(C#N)=C(N)OC3=C2C(=O)CCC3)cc1COc1ccc(F)c(Cl)c1 (stereo not shown),-0.68%
9,Cc1ccc(N2C(=O)CC(NCCc3ccccc3F)C2=O)cc1 (stereo not shown),-7.61%
10,Cc1ccsc1C1C2=C(O)CCCC2=Nc2ncnn21 (stereo not shown),-5.14%
11,COc1ccc(OC)c(/C=C2\N=C(c3ccc(-c4ccccc4)cc3)OC2=O)c1,-31.7%
12,CCCCCC(=O)N(CN1C(=O)CCC1=O)c1ccccc1,-4.68%
13,COc1cc(/C=C2\SC(=O)N(Cc3c(F)cccc3Cl)C2=O)ccc1OC(C)C(=O)O (stereo not shown),-1.81%
14,CCN(CC)CCCNC(=O)C1CCN(C(=O)c2cnn(-c3ccccc3)c2-n2cccc2)CC1,-1.58%
15,COC(=O)c1ccc(C2NN=C(c3ccccc3)S2)cc1 (stereo not shown),3.32%
16,Cc1ccccc1C(=O)c1cccn1CC(=O)N1CCCCCC1,1.15%
17,Cc1ccc(-c2nc(C(=O)N3CCC4(CC3)OCCO4)c3n2CCCCC3)cc1,-9.15%
18,C#CCSc1nsc(SCC#C)c1C#N,4.95%
19,Cc1ccc(N(O)C(=O)Nc2ccccc2[N+](=O)[O-])cc1,1.66%
20,Cc1ccc(CCn2c(C)c(C)c3ccccc32)cn1,2.62%
21,COc1ccccc1C1=N/C(=C\c2ccc3c(c2)OCO3)C(=O)O1,1.61%
22,CCOc1ccc2c(c1)[N+](C)=C(/C=C/c1ccc(C(=O)OC)cc1)C2(C)C,0.627%

row,SMILES,% Inhibition @ 10 uM
1,CC1(C)Cc2c(C#N)c(SCC(=O)O)nc(N3CCOCC3)c2CO1,10.1%
2,COc1ccc(C(=O)c2cc(C)ccc2OC)cc1,5.4%
3,COc1ccc(CNC(=O)Cn2c(-c3nonc3N)nc3ccccc32)cc1,-4.11%
4,O=C(O)c1cccc(NC(=O)C(c2ccccc2)c2ccccc2)c1,-1.26%
5,Nc1ccccc1C(=O)Nc1ccc2c(c1)OCO2,-0.95%
6,CC(C)c1[nH]nc2c1C(c1ccccc1C(F)(F)F)C(C#N)=C(N)O2 (stereo not shown),3.62%
7,COC(=O)c1cc2sc(Cl)cc2n1CC(=O)N1CCCC1,-3.5%
8,Nc1c(S(=O)Cc2ccc(Cl)cc2)sc2nc3c(cc12)CCCC3 (stereo not shown),-0.178%
9,CCC(Oc1ccccc1)c1nc2ccccc2n1CC (stereo not shown),3.81%
10,COc1cc(OC)cc(-c2cc(N)n(S(=O)(=O)c3ccc(OC)c(OC)c3)n2)c1,-2.19%
11,O=C(NCc1ccco1)c1cccc2c1C(=O)N(C1CCCCC1)C2,1.23%
12,COc1cc(Cl)cc(/C=C2\SC(=O)N(CC(=O)Nc3ccc(C)cc3)C2=O)c1O,14.6%
13,CSc1ncccc1C(=O)NCc1cccs1,0.238%
14,C/C(S)=N\c1ccc2c(c1)ncn2-c1ccccc1C,-6.33%
15,COc1cccc(NC(=O)c2cc(C(=O)O)n(C)n2)c1,-6.38%
16,CC1(C)CC2=Nc3ccccc3NC(c3ccc(C#N)cc3)C2=C(O)C1 (stereo not shown),-4.43%
17,Cc1ccc(Cn2cc3c(n2)-c2c(oc(C(=O)O)c2C)CC3)cc1,-0.0309%
18,COc1ccc(OC)c(C2C(C#N)=C(C)N=C3CC(C)(C)CC(O)=C32)c1 (stereo not shown),-1.2%
19,CC(NC(=O)CCc1nnc2n(Cc3ccccc3Cl)c(=O)c3ccccc3n12)c1ccccc1 (stereo not shown),-0.692%
20,CC(C)CC(=O)Nc1c(C(=O)c2ccc(Cl)cc2)oc2ccccc12,0.414%

# Source: publication PMC6919601, “Identification of Plasmodium dipeptidyl aminopeptidase allosteric inhibitors by high throughput screening” (PLoS ONE, 2019)
